The supplement of paper PMC11417369
± gives the standard deviation of the averaged measurements. This is one part of the list.

test system: PfAP2-LT AP2 domain (GST-tagged); experiment: gcPBM binding intensity (ln(normalized median fluorescence intensity)); higher = stronger DNA binding
How it was run: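 In this array assay, P. falciparum DNA-binding domains with a GST tag, expressed in E. coli, were applied for 1 h to primer-extended double-stranded 36-bp intergenic genomic probes and negative controls on an Agilent 4 × 180k array. Bound protein was visualised with Alexa488 anti-GST antibody at 488 nm. Binding intensity is the highest Masliner-normalised natural-log median intensity across replicate spots of either probe orientation.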

“TTTTTTTTTTTTTTATGTACTAAAAAATGAAAAATA [XGTACX_site6812]” and “AAATACTTAACATTGGTGCATATTTGTAAAATTATT [GTGCAC_site9515]” are within error of each other in “gcPBM binding intensity (ln)” value: 8.02 ± 0.3 for the first, 8.77 ± 0.49 for the second.

“ATGCAATAATAATATTGTACGCATATATTTTTTACT [XGTACX_site3384]” and “AGAATACAAAATTGCACACATATTGTGAAAATGTTA [CACACA_site4005]” are within error of each other in “gcPBM binding intensity (ln)” value: 8.72 ± 0.35 for the first, 9.19 ± 0.47 for the second.

“TTTTGGCTTCTAATATTATACAAAATGGTAAGGAAA [TGCATGCA_negctrl_site169]” and TTATTTATTTATTGGGTGCACTTGATTTAAATATGC are within error of each other in “gcPBM binding intensity (ln)” value: 8.21 ± 0.29 for the first, 8.85 ± 0.47 for the second.

“AAAAAAAAAAAAAAAACACACACATATATATAATAT [CACACA_site9038]” and “AATACATCATTAAAATGTACATATATATATACATTA [XGTACX_site132]” are within error of each other in “gcPBM binding intensity (ln)” value: 9.3 ± 0.41 for the first, 8.68 ± 0.43 for the second.

“ATTATAATAATGTGATGTACATTAATTGTCTTCCTA [XGTACX_site5404]” and “ATATATATTAATTTTGTGCACAAATGGAAATGTTTG [GTGCAC_site9971]” are within error of each other in “gcPBM binding intensity (ln)” value: 8.86 ± 0.45 for the first, 8.8 ± 0.36 for the second.

Going from “GAAATAAGGGTTATTTCACACATTGCATGTATTTTC [CACACA_site5752]” to “TTTTTTAAATGTCATTGTACATAATTCAATATATAA [XGTACX_site5]”, the “gcPBM binding intensity (ln)” value falls from 9.05 ± 0.28 to 8.29 ± 0.32.

“AGCTAATATATCTTATATTCATATAAAAAAATATAT [CACACA_negctrl_site1786]” and “TGACTTTTTTTATGTTGTACTTATTATAAAAAAAAT [XGTACX_site7736]” are within error of each other in “gcPBM binding intensity (ln)” value: 8.46 ± 0.36 for the first, 8.33 ± 0.35 for the second.

“TTATAAAATATTTTTTGTACACATAATAGTAAGACT [XGTACX_site933]” and “AACCATGTTAACAACGCATGTATATCTATGGGTTTA [TGCATGCA_site419]” are within error of each other in “gcPBM binding intensity (ln)” value: 8.48 ± 0.45 for the first, 8.81 ± 0.42 for the second.

“CTTATATTTAGACACACACACAATAAAATGAAAAAA [CACACA_site1031]” and “GATTAATACACATTCTTCCGACATAATAAGAAAAAG [GTGCAC_negctrl_site7]” are within error of each other in “gcPBM binding intensity (ln)” value: 9.46 ± 0.39 for the first, 8.7 ± 0.42 for the second.

“GATTATTTTATAAGTACACACATTTATCTATAATAA [CACACA_site7256]” and “AATACATGCTTATTTTAACACACAAATGGTAGTAAT [CACACA_site8154]” are within error of each other in “gcPBM binding intensity (ln)” value: 8.77 ± 0.41 for the first, 8.91 ± 0.36 for the second.

Going from “CACCCACACCAACACACACACATATATAATATATAT [CACACA_site595]” to “CCATAATATTATAGACGTACGAATATATATAAAAGA [XGTACX_site7295]”, the “gcPBM binding intensity (ln)” value falls from 9.88 ± 0.33 to 9.03 ± 0.49.

Going from “TATAGATAACAAAAGTGTACATGTTGTATACACATG [XGTACX_site3471]” to “TATATATATAAACACACACACACACCCAAGCGTAGC [CACACA_site4210]”, the “gcPBM binding intensity (ln)” value rises from 8.82 ± 0.41 to 10.07 ± 0.057.

For “AACAACTATTACTGCACACATTCTTACACTATATAA [CACACA_site654]”, the “gcPBM binding intensity (ln)” value was 9.28 ± 0.35.
